According to the supplement of paper PMC3334620:
Whole data set: some 33,000 sequences, median “E-score (-0.5 to 0.5)” near -0.056, cut for the highest 2% near 0.38. The list shows a part of the results.

Biological target: Stb4 (UniProt P50104)
Assay: PBM E-score (8-mer binding enrichment) (E-score (-0.5 to 0.5)); higher = stronger / more preferred TF binding; most listed sequences are background and not binding sites
Conditions: protein concentration: 200 nM; construct: GST-DNA-binding domain
Experimental: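 Universal 'all 10-mer' protein binding microarrays (Agilent AMADID 015681) probed with GST-tagged S. cerevisiae TFs (full-length or DBD) made by in vitro transcription/translation (PURExpress), about 100-200 nM. Bound TF was detected with fluorescent anti-GST. Each ungapped 8-mer (which stands for itself and its reverse complement) is scored by the PBM enrichment score (E-score), a modified Wilcoxon-Mann-Whitney statistic from -0.5 to +0.5, computed with the Universal PBM Analysis Suite. Scale: above 0.35 generally sequence-specific binding.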

| Sequence | PBM E-score |
| --- | --- |
| CTAATCCA | -0.067 |
| GAACTATC | -0.0561 |
| CAGAACCG | 0.0439 |
| TAGCCCAA | -0.199 |
| GTGCACAC | -0.201 |
| CAACAAAC | 0.0637 |
| AGACTCGA | -0.181 |
| ATTTGGCG | -0.136 |
| GGTACCAC | 0.104 |
| ATAGTACC | 0.0777 |
| GCATAAGA | 0.0427 |
| CTCGGCTA | 0.472 |
| CTCTGGAC | -0.0837 |
| AATACCAC | -0.0945 |
| ATTGCCAG | 0.121 |
| AGCACTGC | -0.134 |
| AAGTCAGC | -0.13 |
| AATTTCGG | 0.393 |
| ACTGTCCT | -0.105 |
| AAATTTTG | -0.0365 |
| GCTTCTCC | -0.0282 |
| TTCGCCAA | -0.255 |
| CTGGTACC | -0.0941 |
| ATGCGGAC | 0.0624 |
| CGTCAATA | -0.058 |

| Sequence | PBM E-score |
| --- | --- |
| ACAGTGAC | -0.023 |
| CATCGGCG | 0.165 |
| GGCTACCC | 0.0991 |
| GGATCCGA | 0.459 |
| ACCCGGAC | 0.268 |
| AAAAAACA | 0.0653 |
| ATTATCTA | -0.0238 |
| GTTATGCA | -0.198 |
| GACATGTC | -0.207 |
| GAAGGCGA | -0.051 |
| ATCATACC | 0.103 |
| CCTGCCTA | -0.101 |
| AGTTGTTG | -0.219 |
| CAGAGCGG | -0.0262 |
| ATATACTA | 0.1 |
| CCCGTGTA | 0.128 |
| CCTGAGAA | -0.0307 |
| TCAGTCGA | -0.107 |
| AAGAAACG | -0.084 |
| CGCATTAC | 0.0606 |
| GCTGCACC | 0.085 |
| AACTGTAA | -0.104 |
| CCCGGAAC | 0.416 |
| GAGGCCGC | -0.0762 |
| CTACCATC | 0.0541 |

| Sequence | PBM E-score |
| --- | --- |
| ATCTCATA | -0.0412 |
| AGAGCTTA | -0.146 |
| CGGACCCG | 0.346 |
| ACCTCATC | -0.12 |
| CGGGCTTA | 0.14 |
| AAAAGAGC | -0.189 |
| CGTAACTA | -0.18 |
| ATGTAGGA | -0.18 |
| CGGTTTTC | 0.239 |
| ATCGACAT | 0.00232 |
| AGTATATC | 0.138 |
| CGTTCGGC | 0.368 |
| CAAGTCCC | -0.0804 |
| GTGGGACA | -0.0153 |
| ATGTCCAC | -0.0406 |
| ATCCTATA | -0.0575 |
| GACCGTAC | 0.0178 |
| CACTGAAA | -0.0776 |
| CGATAATC | -0.0136 |
| ACGTCACC | -0.0588 |
| GATTACAC | -0.12 |
| ACCTTCAC | -0.0961 |
| ATATTATC | -0.0226 |
| GCAAGGGA | -0.251 |
| AGCGGGTG | 0.0899 |

| Sequence | PBM E-score |
| --- | --- |
| CATAGCCA | -0.156 |
| AGTCGCTA | -0.174 |
| CTAGGCCC | -0.0168 |
| GTCGCCTA | 0.00181 |
| AGCGAGCA | -0.145 |
| CCACGGAC | 0.012 |
| CGAGCCAA | 0.00699 |
| ACACCAGG | -0.154 |
| CTCGCTCC | 0.0527 |
| AAATCAAC | -0.136 |
| ACGCGGGC | 0.174 |
| AATACGCA | -0.161 |
| AGGTATTC | -0.139 |
| ACCTCGCA | -0.227 |
| AACAGCAA | -0.125 |
| CGCCAAGC | -0.132 |
| ACACACGC | 0.0995 |
| AACCGTGA | 0.0656 |
| CTTACCCC | -0.0993 |
| ACTTGTTG | -0.303 |
| CTCAGAAA | -0.232 |
| AAGAGACG | 0.119 |
| AGTACGCA | -0.272 |
| CGGCTCTA | 0.257 |
| ATGTACCG | 0.204 |

| Sequence | PBM E-score |
| --- | --- |
| AAGGAGTG | -0.0911 |
| ACCAATAT | -0.151 |
| CAGACTAA | -0.0911 |
| ACGCAATG | -0.294 |
| CGGCCATA | 0.00203 |
| CGCCATAG | -0.138 |
| ATAGCACC | -0.0552 |
| CAGCATAG | -0.101 |
| CAGAGTCG | -0.0973 |
| AGGTCTTA | -0.141 |
| ATGTAAAG | -0.162 |
| GAGACCTC | 0.0123 |
| CACGGTGA | -0.147 |
| CTCGGCGC | 0.383 |
| GTACGTAC | 0.115 |
| GCAAAACA | -0.0269 |
| GTCATTCA | -0.205 |
| AATACTAT | -0.125 |
| CCCTCGAC | -0.115 |
| CGCGGGGA | 0.214 |
| ACCCGTAA | 0.222 |
| CGTCGGCC | 0.245 |
| ATGACAAG | -0.0418 |
| GACTTGGC | -0.207 |
| GAGCCTTA | -0.057 |

| Sequence | PBM E-score |
| --- | --- |
| ATAGAATA | -0.0868 |
| AAGGAGGC | -0.239 |
| CAAGACCA | -0.153 |
| CCCCCTCG | -0.139 |
| GTCTGCTA | -0.0233 |
| ATTATGGG | -0.0331 |
| ACTTCTGC | 0.00201 |
| CATGACGC | -0.195 |
| AAGATATA | -0.0235 |
| ATCTATCA | -0.0983 |
| CTGCAACA | 0.0514 |
| CCTGTGTA | -0.263 |
| AGGGTGTC | -0.0528 |
| CAGGAGAG | -0.273 |
| CCAAGAGG | -0.244 |
| AGAGCAAA | -0.185 |
| AGAGATAC | -0.121 |
| CAACGAAG | -0.176 |
| ATATGTTG | -0.127 |
| AAGGCCAG | -0.135 |
| AGCGTACT | -0.135 |
| CTACCAAG | -0.281 |
| GCAGTACA | -0.0615 |
| TACTTGAA | -0.229 |
| AGACCAAT | -0.169 |

| Sequence | PBM E-score |
| --- | --- |
| AGGGCGGG | 0.158 |
| GTGAAGAA | -0.139 |
| ATATCTCC | 0.169 |
| ATGGACAG | -0.197 |
| AGGTGCAA | -0.144 |
| GTCGAGAA | -0.277 |
| CCCCAAAG | -0.319 |
| GGAAATCA | 0.0529 |
| ATCCGCTC | 0.313 |
| GTCGCGTA | -0.167 |
| AAACGCGA | 0.0221 |
| ATCGCCAT | -0.134 |
| AAGCGAGT | 0.183 |
| ACTTATAG | -0.122 |
| ATAAAGAC | -0.138 |
| ATTAAAAG | 0.0108 |
| GGATTACA | -0.12 |
| ACACACAC | -0.191 |
| CGAGAATA | 0.0419 |
| CGAAGTAC | 0.228 |
| CATCTTGG | -0.141 |
| CATCGGCA | 0.376 |
